These are yes or no findings as the source states them, for the method shown. Binding seen in cells or lysates may run through a third protein. Some results given as binding are weak or reduced against the parent protein; the word gives no strength. Where a sequence is shown, tags or fusion partners need not be part of it.
T1: Rtn1p-GFP (S. cerevisiae) (UniProt Q04947)
T1 sequence: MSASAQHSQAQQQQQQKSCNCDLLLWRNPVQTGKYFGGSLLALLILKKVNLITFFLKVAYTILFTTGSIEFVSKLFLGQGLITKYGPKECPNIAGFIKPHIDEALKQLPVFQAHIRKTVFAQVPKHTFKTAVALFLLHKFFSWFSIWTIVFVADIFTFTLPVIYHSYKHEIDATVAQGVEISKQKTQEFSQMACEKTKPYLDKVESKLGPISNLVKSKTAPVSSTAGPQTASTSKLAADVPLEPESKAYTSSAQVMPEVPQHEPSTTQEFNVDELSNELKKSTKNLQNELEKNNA

T2: Snf7p-HA (S. cerevisiae) (UniProt P39929)
T2 sequence: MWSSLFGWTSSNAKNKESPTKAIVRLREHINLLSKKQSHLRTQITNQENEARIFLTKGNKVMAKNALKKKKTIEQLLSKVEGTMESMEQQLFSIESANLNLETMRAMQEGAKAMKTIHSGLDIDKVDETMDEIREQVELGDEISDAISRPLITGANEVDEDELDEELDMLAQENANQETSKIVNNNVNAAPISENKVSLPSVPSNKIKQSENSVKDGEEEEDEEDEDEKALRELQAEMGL

T3: Vps20p-HA (S. cerevisiae) (UniProt Q04272)
T3 sequence: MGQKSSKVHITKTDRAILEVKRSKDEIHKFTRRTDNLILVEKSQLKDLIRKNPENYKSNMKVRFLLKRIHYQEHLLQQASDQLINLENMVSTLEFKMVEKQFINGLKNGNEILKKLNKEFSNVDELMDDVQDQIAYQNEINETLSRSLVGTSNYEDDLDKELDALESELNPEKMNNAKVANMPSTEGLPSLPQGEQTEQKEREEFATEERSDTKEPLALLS

T4: Vps23p-HA (S. cerevisiae) (UniProt P25604)
T4 sequence: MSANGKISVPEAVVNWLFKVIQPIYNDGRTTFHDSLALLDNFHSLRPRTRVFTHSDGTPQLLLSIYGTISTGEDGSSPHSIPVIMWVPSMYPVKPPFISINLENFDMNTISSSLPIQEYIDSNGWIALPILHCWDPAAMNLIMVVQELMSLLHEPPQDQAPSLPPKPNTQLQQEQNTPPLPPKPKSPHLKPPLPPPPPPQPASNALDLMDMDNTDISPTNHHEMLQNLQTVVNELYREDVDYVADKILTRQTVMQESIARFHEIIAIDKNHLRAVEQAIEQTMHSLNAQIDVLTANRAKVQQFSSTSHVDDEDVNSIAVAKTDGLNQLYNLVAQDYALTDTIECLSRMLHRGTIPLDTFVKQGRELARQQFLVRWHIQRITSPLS

T5: Vps4p-HA (S. cerevisiae) (UniProt P52917)
T5 sequence: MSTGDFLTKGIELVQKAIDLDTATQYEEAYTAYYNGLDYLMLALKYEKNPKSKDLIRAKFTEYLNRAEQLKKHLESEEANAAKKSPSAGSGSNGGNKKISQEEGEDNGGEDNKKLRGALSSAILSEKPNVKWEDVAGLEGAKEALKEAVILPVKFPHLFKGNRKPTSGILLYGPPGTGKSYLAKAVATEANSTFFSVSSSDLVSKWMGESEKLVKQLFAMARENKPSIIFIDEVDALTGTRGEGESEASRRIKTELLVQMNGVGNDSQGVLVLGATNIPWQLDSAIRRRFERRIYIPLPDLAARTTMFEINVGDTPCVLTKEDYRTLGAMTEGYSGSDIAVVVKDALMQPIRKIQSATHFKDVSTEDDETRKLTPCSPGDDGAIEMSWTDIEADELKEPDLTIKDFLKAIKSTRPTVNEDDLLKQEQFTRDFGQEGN

T6: Vta1p-HA (S. cerevisiae) (UniProt Q06263)
T6 sequence: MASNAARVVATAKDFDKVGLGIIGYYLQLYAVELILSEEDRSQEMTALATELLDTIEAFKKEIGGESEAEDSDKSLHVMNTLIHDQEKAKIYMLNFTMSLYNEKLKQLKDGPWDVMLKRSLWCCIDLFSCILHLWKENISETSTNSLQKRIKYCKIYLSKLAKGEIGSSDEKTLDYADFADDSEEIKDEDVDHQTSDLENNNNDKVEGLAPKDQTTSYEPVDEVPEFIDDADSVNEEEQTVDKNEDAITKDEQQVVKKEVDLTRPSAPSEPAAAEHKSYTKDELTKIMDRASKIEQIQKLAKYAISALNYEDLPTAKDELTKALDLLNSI

T7: Brome mosaic virus (BMV) 1a protein (brome mosaic virus) (UniProt P03588)
T7 sequence: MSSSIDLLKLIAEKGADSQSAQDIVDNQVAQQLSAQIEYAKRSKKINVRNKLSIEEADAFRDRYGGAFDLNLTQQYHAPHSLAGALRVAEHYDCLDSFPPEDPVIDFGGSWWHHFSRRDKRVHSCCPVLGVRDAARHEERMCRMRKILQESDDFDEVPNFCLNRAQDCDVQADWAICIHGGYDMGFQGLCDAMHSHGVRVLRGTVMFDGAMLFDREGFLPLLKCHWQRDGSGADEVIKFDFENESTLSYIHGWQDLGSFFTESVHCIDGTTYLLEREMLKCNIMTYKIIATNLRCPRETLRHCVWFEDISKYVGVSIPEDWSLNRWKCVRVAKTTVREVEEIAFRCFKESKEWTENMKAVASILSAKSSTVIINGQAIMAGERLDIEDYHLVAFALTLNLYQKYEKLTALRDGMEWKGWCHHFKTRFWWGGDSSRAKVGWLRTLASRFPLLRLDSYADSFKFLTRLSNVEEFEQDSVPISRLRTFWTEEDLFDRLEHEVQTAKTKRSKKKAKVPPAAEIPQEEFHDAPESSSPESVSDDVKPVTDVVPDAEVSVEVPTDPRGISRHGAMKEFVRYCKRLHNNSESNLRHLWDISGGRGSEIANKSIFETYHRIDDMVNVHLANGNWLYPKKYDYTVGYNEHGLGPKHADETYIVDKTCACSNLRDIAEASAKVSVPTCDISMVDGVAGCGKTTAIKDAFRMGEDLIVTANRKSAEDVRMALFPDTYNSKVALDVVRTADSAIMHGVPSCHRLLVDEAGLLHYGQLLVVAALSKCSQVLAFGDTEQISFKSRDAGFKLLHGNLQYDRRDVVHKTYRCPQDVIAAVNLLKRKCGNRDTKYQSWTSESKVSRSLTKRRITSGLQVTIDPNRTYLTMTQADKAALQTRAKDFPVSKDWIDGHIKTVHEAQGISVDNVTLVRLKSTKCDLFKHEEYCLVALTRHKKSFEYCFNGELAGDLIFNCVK

B1: Brome mosaic virus (BMV) 1a protein (protein, UniProt P03588 1-961)
chain: T7 sequence
B2: Snf7p-HA (protein, UniProt P39929 1-240)
chain: T2 sequence

Columns and labels:
[1] = target: T1, Rtn1p-GFP (S. cerevisiae); assay: co-IP; yeast expressing Rtn1p-GFP (chromosomal) and Snf7p-HA with or without 1a; RIPA lysate; IP with anti-GFP antibody and Protein A Sepharose; immunoblot with anti-1a, anti-GFP or anti-HA
Snf7p-HA (S. cerevisiae) = target: T2, Snf7p-HA (S. cerevisiae); assay: co-IP; vps4Δ yeast expressing HA-tagged ESCRT proteins with or without 1a; lysed in RIPA buffer (1% NP-40, 0.1% SDS, 0.5% sodium deoxycholate, 150 mM NaCl, Tris pH 8.0); anti-1a or anti-HA antibodies and Protein A Sepharose overnight at 4°C; immunoblot with anti-1a or anti-HA
[2] = target: T3, Vps20p-HA (S. cerevisiae); assay: as above
[3] = target: T4, Vps23p-HA (S. cerevisiae); assay: as above
Vps4p-HA (S. cerevisiae) = target: T5, Vps4p-HA (S. cerevisiae); assay: as above
Vta1p-HA (S. cerevisiae) = target: T6, Vta1p-HA (S. cerevisiae); assay: as above
[4] = target: T7, Brome mosaic virus (BMV) 1a protein (brome mosaic virus); assay: as above

Row | Binder | binding [1] | binding (Snf7p-HA (S. cerevisiae)) | binding [2] | binding [3] | binding (Vps4p-HA (S. cerevisiae)) | binding (Vta1p-HA (S. cerevisiae)) | binding [4]
1 | B1 | binds | binds | no binding | no binding | no binding | no binding | 
2 | B2 | no binding |  |  |  |  |  | binds

Reference: publication PMC4351987
